Our source for the survival values is PubChem BioAssay AID463173 (ICCB-Longwood Screening Facility, Harvard Medical School, 2010).

In all, about 52,000 compounds went through this assay and about 1,700 (3.3%) were called active. Cut-off read from the data, not from the text of the source: active = survival mostly below about 52% (no sharp cut-off); inactive = mostly above about 56%. The list shows a part of the results.

The assay deals with Wild type. Briefly: growth inhibition of S. aureus wild type versus tarO mutant, primary screen, teichoic acid synthesis inhibitors, RN4220, OD600 (AID 463173). The following applies: S. aureus RN4220 wild type/DeltatarO growth, OD600, 18 h, active compounds read low, screened at 18.75 µg/mL (by protocol).
For the molecule `COc1ccc(NC(=O)c2cn(CC(C)C)c(=O)c3cc(OC)c(OC)cc23)cc1Cl`, the survival is inactive: 67%.

Consider `NS(=O)(=O)c1ccc(CCNC(=O)CCCCCn2c(=O)[nH]c3ccccc3c2=O)cc1`, for which the survival is inactive: 83%.

Regarding `COc1ccc2oc(=O)c(C(=O)NCc3cccnc3)cc2c1`, the survival is inactive: 96%.

Regarding `Cc1ccc(NC(=O)c2nn(C)c3c2CS(=O)(=O)c2ccccc2-3)c(Cl)c1`, the survival was inactive: 86%.

In the case of `O=C(CCCCCn1c(=O)c2sccc2n(CC(=O)Nc2cccc(Cl)c2)c1=O)NCc1ccc2c(c1)OCO2`, the survival was inactive: 67%.

For `CCCC(=O)C1=C(O)C(C(=O)OC)C(C)(C)CC1=N` (stereo unspecified), the survival is inactive: 111%.

For the molecule `COc1ccc(-c2nc3c(c(SCC(=O)Nc4ccc(C(=O)O)cc4)n2)Cc2ccccc2O3)cc1`, the survival was inactive: 75%.

On to `CCOC(=O)Cc1ccc(NC(=O)Nc2cccc(OCc3cc(=O)n4cc(C)ccc4n3)c2)cc1`, for which the survival is inactive: 81%.

On to `Cc1nc(N2CCOCC2)c2c(C(=O)NCc3cccc(Cl)c3)c(C)oc2n1`, for which the survival is inactive: 73%.

Consider `Oc1c(C(c2ccccc2)N2CCC3(CC2)OCCO3)sc2nc(-c3ccco3)nn12` (stereo unspecified), for which the survival was inactive: 73%.

Turning to `CCc1c(C)sc2c1CCN(C(=O)Nc1cc(OC)c(OC)c(OC)c1)C2c1ccccc1` (stereo unspecified), the survival is inactive: 19%.

For the molecule `COc1cccc(C(=O)NC2(C(F)(F)F)C(=O)Nc3c2c(=O)[nH]c(=O)n3-c2ccc(C)cc2)c1` (stereo unspecified), the survival is inactive: 78%.

As to `CCc1cccc(NC(=O)CSc2ncc3c(n2)-c2ccc(Cl)cc2N(Cc2ccccc2)S3(=O)=O)c1`, the survival was inactive: 101%.

For the molecule `CCc1ccc(NC(=O)C(NS(=O)(=O)c2cccs2)C(C)C)cc1` (stereo unspecified), the survival was inactive: 75%.

As for `CCCCN(C)CCNC(=O)c1ccc2c(=O)n(CCc3ccccc3)c(=O)[nH]c2c1`, the survival was inactive: 75%.

Consider `CCOC(=O)c1sc(N(C)C(C)=O)nc1C`, for which the survival is inactive: 112%.

In the case of `Cn1c(=O)c2c(-c3ccccc3)n3c(c2n(C)c1=O)C(c1ccccc1[N+](=O)[O-])Nc1ccccc1-3` (stereo unspecified), the survival is inactive: 76%.

`Cn1c(=O)c2c(c3ccccc31)OC(=O)CC2c1ccc(C(F)(F)F)cc1` (stereo unspecified): the survival is inactive: 72%.

In the case of `CCc1ccc2[nH]c(=O)c(CN(CCO)C(=S)NCc3ccco3)cc2c1`, the survival is inactive: 130%.

For `Cc1ccc(C(C(=O)NC2CCCCC2)N(C(=O)C2COc3ccccc3O2)c2ccc3c(c2)OCO3)o1` (stereo unspecified), the survival is inactive: 101%.

Consider `C=CCn1c(N2CCC(C(N)=O)CC2)nc2c1c(=O)n(C)c(=O)n2C`, for which the survival was inactive: 97%.

Regarding `O=C(Nc1ccc2oc(-c3cccc4c(Br)cccc34)nc2c1)c1ccc(F)cc1`, the survival is inactive: 75%.

`O=C(c1ccc2c(c1)N(Cc1ccccc1F)C(=O)c1ccccc1S2(=O)=O)N1CCOCC1`: the survival is inactive: 87%.

For the molecule `CCCN(Cc1cccs1)C(=O)Nc1cc(Cl)c(OC)cc1OC`, the survival was inactive: 81%.

Take `CCCN(CCC)CCCNC(=O)Cn1cnc2sc(C)c(S(=O)(=O)N3CCCCC3)c2c1=O`: the survival was inactive: 88%.

With `CCOC(=O)c1oc2ccc(S(=O)(=O)n3nc(-c4ccccc4OC)cc3N)cc2c1C`, the survival was inactive: 76%.

Take `O=C(COC(=O)c1cc(-c2cccs2)nc2ccccc12)c1ccccc1`: the survival is inactive: 68%.

Consider `Cc1ccc(-c2nc3nc(C)cc(N4CCN(c5cc(Cl)ccc5C)CC4)n3n2)cc1`, for which the survival was inactive: 92%.

Consider `CCOCCCNC(=O)c1ccc2nc(CCc3ccccc3)oc2c1`, for which the survival is inactive: 49%.

For the molecule `COc1ccc(C2=NC3(CCCCC3)N(CC(=O)Nc3ccc(C(C)C)cc3)C2=O)cc1`, the survival is inactive: 84%.

Turning to `COc1cccc(-n2c(SCC(=O)Nc3cc(C)ccc3C)nc3c(oc4ccccc43)c2=O)c1`, the survival was inactive: 96%.

In the case of `COc1ccc(-c2cc(C(=O)Oc3ccccc3)c3cc(C)ccc3n2)cc1`, the survival was inactive: 11%.

Consider `CCn1c(=O)n(-c2ccc(C)c(F)c2)c(=O)c2sc3ccccc3c21`, for which the survival is inactive: 96%.

`COc1cccc(CN2CCc3nc(Nc4ccc5c(c4)OCCO5)ncc3C2)c1`: the survival is inactive: 135%.

For `Cc1ccc2nc(N(Cc3cccnc3)C(=O)Cc3ccccc3)sc2c1`, the survival was inactive: 84%.

As to `Cc1ccccc1Cn1c(SCc2ccc(C(=O)NC(C)c3ccccc3)cc2)nc2ccncc21` (stereo unspecified), the survival is inactive: 95%.

For the molecule `COc1cccc(C2CC(=O)Nc3cc4c(cc32)OCCO4)c1OC` (stereo unspecified), the survival was inactive: 83%.

As for `CCOC(=O)c1ccccc1NC(=O)Cn1ncc2c([nH]c3ccccc32)c1=O`, the survival was inactive: 83%.

Regarding `CCc1ccccc1NC(=O)CCn1nc(C)c2c(C)n(-c3ccccc3)nc2c1=O`, the survival was inactive: 88%.

Regarding `COc1ccc(C(=O)CN2CCN(S(=O)(=O)c3ccc(C(C)C)cc3)CC2)cc1`, the survival is inactive: 71%.

Turning to `Fc1ccc(NCc2cccn2-c2nnc(N3CCOCC3)s2)cc1`, the survival was inactive: 60%.

`CC1CCN(c2ncnc3c2cnn3-c2ccc(F)cc2)CC1`: the survival was inactive: 81%.

Take `CCc1ccc(-n2c(=O)c3c4c(sc3n(CC(=O)NCCCOC)c2=O)CCCC4)cc1`: the survival is inactive: 129%.

Consider `O=c1[nH]c2ccc(N=Cc3ccccc3C(F)(F)F)cc2[nH]1`, for which the survival is inactive: 116%.

Regarding `O=C(NCCc1cccs1)c1ccc(Cn2c(SCc3ccc(F)cc3)nc3cccnc32)cc1`, the survival was inactive: 76%.

For `CCc1ccc(-c2nc(CN3CCC(C(=O)NCCc4ccc(Cl)cc4)CC3)c(C)o2)cc1`, the survival was inactive: 83%.

Turning to `COc1cccc(NC(=O)c2sc3nc(C)c(C(=O)Nc4ccc(C)cc4C)c(-c4ccccc4Cl)c3c2N)c1`, the survival was inactive: 107%.

Regarding `CC1CCN(C(=O)c2ccc3nc(N4C(=O)CCC4=O)sc3c2)CC1`, the survival is inactive: 105%.

For the molecule `Cc1ccc(CCNC(=O)c2ccc(NC(=O)N3CC(C)Sc4ccccc43)cc2)cc1` (stereo unspecified), the survival was inactive: 72%.

Take `COC(=O)C1=C(c2ccccc2)c2ccccc2S(=O)(=O)N1CC(=O)Nc1cccc(C(C)=O)c1`: the survival was inactive: 84%.

As to `O=C(Nc1ccc(Cl)cc1)C1CCN(S(=O)(=O)c2ccc(Br)s2)CC1`, the survival was inactive: 60%.

For the molecule `Cc1ccccc1C(=O)Nc1ccc(C(=O)OCc2cc(=O)n3nc(C4CC4)sc3n2)cc1`, the survival is inactive: 71%.

In the case of `COc1ccc2c(c1)c1c(c(=O)n(Cc3ccccc3)c(=O)n1Cc1ccc(C)cc1)n2C`, the survival is inactive: 87%.

Regarding `Cc1ccc(-n2ncc(C(=O)NCCCN3CCc4ccccc4C3)c2C2CCN(C(=O)OC(C)(C)C)CC2)cc1C`, the survival was inactive: 73%.

Take `CC(CNC(=O)CN1C(=O)COc2ccc(S(=O)(=O)N3CCCCC3)cc21)c1ccccc1` (stereo unspecified): the survival was inactive: 93%.

Consider `CC(/C=C/c1ccco1)=N/NC(=O)Cc1cccs1`, for which the survival is inactive: 124%.

Consider `CN(CC(=O)NCc1ccccn1)S(=O)(=O)c1ccccc1`, for which the survival is inactive: 108%.

Turning to `CC1CN(C(=O)Nc2ccc(C(=O)NCCc3ccccc3Cl)cc2)c2ccccc2S1` (stereo unspecified), the survival was inactive: 94%.

For the molecule `COC(=O)CSc1nc(N2CCOCC2)nc(N2CCOCC2)n1`, the survival was inactive: 107%.

Turning to `O=C1CC(N2CCC(c3nc4ccccc4[nH]3)CC2)C(=O)N1` (stereo unspecified), the survival is inactive: 107%.

As to `CCOC(=O)C1CCN(C(=O)c2cc3ccc4ccc(C)[nH]c4c3n2)CC1`, the survival was inactive: 60%.

With `CCC(C)NC(=O)c1[nH]c2cc(OC)ccc2c1Sc1ccc(C)cc1` (stereo unspecified), the survival was inactive: 84%.

`COc1ccc(-c2cc(C(F)(F)F)n3nc(C(=O)Nc4sc5c(c4C#N)CCC(C)C5)cc3n2)cc1OC` (stereo unspecified): the survival was inactive: 80%.

Consider `CCOc1ccc(NC(=O)CC2C(=O)N(c3cccc(C)c3)C(=O)N2Cc2ccco2)cc1` (stereo unspecified), for which the survival was inactive: 88%.

On to `CC(=O)N1c2ccccc2C(=O)C1N1CCN(c2cc(Cl)ccc2C)CC1` (stereo unspecified), for which the survival is inactive: 138%.

On to `O=C(CSCc1cc(=O)c2ccccc2[nH]1)Nc1cccc(C(F)(F)F)c1`, for which the survival was inactive: 124%.

On to `CC(=O)c1ccc(N2CCN(S(=O)(=O)c3ccc4[nH]c5c(c4c3)CCCCC5)CC2)cc1`, for which the survival is inactive: 81%.

On to `CCOC(=O)c1cccc(NC(=O)c2cnn(-c3ccccc3)c2-n2cccc2)c1`, for which the survival is inactive: 63%.

As for `O=C(CSc1nnnn1-c1ccc2c(c1)OCCO2)c1ccc2c(c1)OCCO2`, the survival is inactive: 103%.

Turning to `CCC1CN(C(=O)Nc2ccccc2C(F)(F)F)c2ccccc2S1` (stereo unspecified), the survival was inactive: 136%.

Take `Cc1ccc(CNC(=O)c2cc(S(=O)(=O)N3CCCCC3)cn2C)cc1`: the survival was inactive: 69%.

Turning to `Cc1ccc2nc(CN3CCN(C(=O)Nc4cccc(C)c4C)CC3)oc2c1`, the survival was inactive: 70%.

`CCC1CN(C(=O)N2CCC(C(=O)N(C)Cc3ccccc3)CC2)c2ccccc2O1` (stereo unspecified): the survival is inactive: 86%.

Turning to `Cc1nc2c(-c3ccccc3)c(C)[nH]n2c(=O)c1Cc1ccc(C(C)C)cc1`, the survival was active: -5%.

As for `CCS(=O)(=O)c1ncc(N(Cc2cccc(F)c2)Cc2ccco2)c(C(=O)Nc2ccccc2Cl)n1`, the survival is inactive: 83%.

In the case of `COc1ccc(NC(=O)CN2C(=O)CC(c3ccco3)Sc3ccccc32)cc1OC` (stereo unspecified), the survival was inactive: 84%.

For `COC(=O)c1scc(-c2ccc(C)cc2)c1S(=O)(=O)Nc1c(C)cc(C)cc1C`, the survival was inactive: 136%.

As to `CCCc1c(O)nc(SCC(=O)N2CCCCC2)[nH]c1=O`, the survival was inactive: 103%.

On to `CCOc1ccccc1NC(=O)CCNS(=O)(=O)c1ccc2c(c1)CCN2C(=O)C1CC1`, for which the survival was inactive: 81%.

`CCCCS(=O)CC(O)CSc1nc(-c2ccc(OC)cc2)cc(-c2ccccc2)c1C#N` (stereo unspecified): the survival is inactive: 76%.

As for `Cc1ccc(/C=C/c2onc(C)c2S(=O)(=O)N2CCC(C(=O)NCc3ccc(N(C)C)cc3)CC2)cc1`, the survival was inactive: 80%.

On to `COc1ccc(NC(=O)CN(c2ccc(C)cc2)S(=O)(=O)c2cccs2)cc1OC`, for which the survival is inactive: 80%.

Regarding `Cc1ccc(OCCCC(=O)Nc2sc3c(c2C(N)=O)CCCC3)cc1`, the survival was inactive: 57%.

In the case of `Cn1ncc2c(N3CCN(c4ccccc4Cl)CC3)ncnc21`, the survival was inactive: 127%.

In the case of `CCCCN(C)C(=O)Cn1ncc2c([nH]c3ccc(C)cc32)c1=O`, the survival was inactive: 81%.

Take `Fc1ccccc1N1CCN(c2c3c(nc4nncn24)CCC3)CC1`: the survival was inactive: 86%.
